The list shows a part of the results. The energies were worked out here from pooled read counts, against the library average; single values are noisy.
Target: T1, Pho4 (S. cerevisiae) (UniProt P07270)
T1 sequence: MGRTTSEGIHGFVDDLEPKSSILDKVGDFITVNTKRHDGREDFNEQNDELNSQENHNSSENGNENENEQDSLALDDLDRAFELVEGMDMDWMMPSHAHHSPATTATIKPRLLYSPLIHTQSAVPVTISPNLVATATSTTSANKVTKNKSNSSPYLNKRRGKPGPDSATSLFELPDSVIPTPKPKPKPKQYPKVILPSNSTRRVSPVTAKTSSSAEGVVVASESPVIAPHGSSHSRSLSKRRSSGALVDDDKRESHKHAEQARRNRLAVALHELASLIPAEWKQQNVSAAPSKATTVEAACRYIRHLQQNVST
Assay: relative binding free energy (BET-seq); higher = weaker binding
Conditions: reference: library average

Sequence	relative binding free energy
GGAGTCACGTGTGTTT	0.24 kcal/mol
ATGGTCACGTGGCGTG	-0.07 kcal/mol
GTGAGCACGTGATTGT	0.04 kcal/mol
ATATTCACGTGGGCCG	0.13 kcal/mol
TGTTCCACGTGGAGGG	0.09 kcal/mol
GTTTACACGTGTAGGC	0.17 kcal/mol
CATTCCACGTGTTGTG	0.12 kcal/mol
TAGTACACGTGAGGTA	0.09 kcal/mol
AATGGCACGTGAATGA	0.22 kcal/mol
GGAGTCACGTGATATT	0.16 kcal/mol
TGTGACACGTGTCTGG	0.12 kcal/mol
ACTGTCACGTGGTTAG	-0.06 kcal/mol
AGCGCCACGTGTTTGG	-0.13 kcal/mol
GACGTCACGTGTGATG	0.29 kcal/mol
GCAGTCACGTGGGTTG	0 kcal/mol
TATTACACGTGTATTA	0.03 kcal/mol
GTCTGCACGTGTGGAT	0.05 kcal/mol
TCAAACACGTGGGGTG	-0.12 kcal/mol
AGTGCCACGTGCGGTC	0.12 kcal/mol
ATGAACACGTGTTGAG	0.05 kcal/mol
TTAGGCACGTGGAGGG	-0.1 kcal/mol
ATGTGCACGTGGTAGC	-0.12 kcal/mol
TGAAACACGTGGGTGT	-0.12 kcal/mol
AGGTTCACGTGCCTGT	0.09 kcal/mol
TAAGCCACGTGGAGGG	-0.15 kcal/mol
AGTAGCACGTGTGCTG	-0.06 kcal/mol

Sequence	relative binding free energy
TAGTCCACGTGTGGTG	0.04 kcal/mol
TGTTTCACGTGTGCAT	0.23 kcal/mol
TGGGTCACGTGGAGCT	0.02 kcal/mol
CGGGGCACGTGCGGCG	-0.29 kcal/mol
GTTTTCACGTGGTTCT	0.27 kcal/mol
GTGTTCACGTGGGTAT	0.22 kcal/mol
ATAGACACGTGGTAAT	-0.1 kcal/mol
TAATGCACGTGATGCT	0.14 kcal/mol
TGAGTCACGTGACTGG	0.27 kcal/mol
CTCCGCACGTGGGGGG	-0.34 kcal/mol
GAGGTCACGTGTGAGA	0.23 kcal/mol
CTGCTCACGTGTAGGT	0.22 kcal/mol
TTGGTCACGTGGGCTC	-0.03 kcal/mol
TTAGGCACGTGATGAT	0.11 kcal/mol
TGTAGCACGTGTTAAG	-0.11 kcal/mol
GGGCGCACGTGGATAG	0.06 kcal/mol
ATTACCACGTGTTGTT	-0.13 kcal/mol
GGTATCACGTGAGATA	0.38 kcal/mol
ATGCTCACGTGCGGTT	0.17 kcal/mol
AGGAACACGTGGATGA	0.13 kcal/mol
TTATGCACGTGGCTTA	-0.19 kcal/mol
AGAGGCACGTGGTCAA	-0.1 kcal/mol
ATTTACACGTGGGGGA	-0.01 kcal/mol
CTGGTCACGTGATAAG	0.15 kcal/mol
GTTAGCACGTGTTTGC	-0.01 kcal/mol
TTGATCACGTGTGGAA	0.32 kcal/mol

Sequence	relative binding free energy
ATCGGCACGTGGAATT	0.13 kcal/mol
ATTGCCACGTGGGGCG	-0.32 kcal/mol
TTATACACGTGGCGGA	0.08 kcal/mol
GTGCGCACGTGTTGCT	-0.09 kcal/mol
AATTACACGTGTGATA	0.24 kcal/mol
GTTGCCACGTGCAGGG	-0.2 kcal/mol
CTGCGCACGTGGGGTG	-0.35 kcal/mol
CGTAACACGTGGGGTT	-0.16 kcal/mol
CAGTGCACGTGAGGAT	0.13 kcal/mol
TTCAACACGTGGTGTA	-0.1 kcal/mol
TGAATCACGTGGAAGT	0.22 kcal/mol
GGGGGCACGTGTCTAG	-0.11 kcal/mol
CGGTCCACGTGTATTG	0.06 kcal/mol
GGGTTCACGTGTGAGT	0.39 kcal/mol
CGGAGCACGTGGTGGT	-0.02 kcal/mol
GTGCTCACGTGGTGTT	0.1 kcal/mol
GTTTTCACGTGTGCAG	0.31 kcal/mol
TCATTCACGTGTTTTA	0.14 kcal/mol
AGCTTCACGTGGATGG	0.28 kcal/mol
AAGTTCACGTGATATA	0.39 kcal/mol
TAAGTCACGTGGGTCA	0.03 kcal/mol
TGTAGCACGTGAAAGG	0.15 kcal/mol
TTTGCCACGTGCAGGG	-0.13 kcal/mol
TGCATCACGTGGATGT	-0.07 kcal/mol
CTGGGCACGTGGGCGG	-0.21 kcal/mol
TTGGGCACGTGAGCAA	0 kcal/mol

Sequence	relative binding free energy
GTTTTCACGTGATAAA	0.34 kcal/mol
AAAGGCACGTGCTGGA	-0.14 kcal/mol
AACGTCACGTGAGTGT	0.2 kcal/mol
TGTAACACGTGGGTAA	-0.13 kcal/mol
TTTTTCACGTGAGGCA	0.34 kcal/mol
TTCGGCACGTGCGTAT	-0.19 kcal/mol
TCTTACACGTGGGTGC	0.03 kcal/mol
AGGTTCACGTGGTTAG	0.39 kcal/mol
ATACGCACGTGATGTG	0.01 kcal/mol
GGAGTCACGTGAAGGA	0.39 kcal/mol
TTAAGCACGTGCGAGT	-0.05 kcal/mol
ATGTTCACGTGATGGG	0.3 kcal/mol
CGTTGCACGTGTGGGA	0.1 kcal/mol
CGTGGCACGTGTGTTG	-0.04 kcal/mol
GTGGTCACGTGTACTT	0.29 kcal/mol
GGGCGCACGTGCTGGC	-0.13 kcal/mol
GTTTGCACGTGGTCTT	-0.01 kcal/mol
GTTCACACGTGGAGTG	-0.04 kcal/mol
TATATCACGTGGAGCG	0.22 kcal/mol
GGAAACACGTGGTGCG	-0.1 kcal/mol
TGATCCACGTGGTAAG	0.21 kcal/mol
AGGCCCACGTGGTGTG	-0.35 kcal/mol
ATGCTCACGTGGAGTT	0.22 kcal/mol
TGGTTCACGTGGCTTG	0.22 kcal/mol
TGGAACACGTGTTCAG	0.1 kcal/mol
ATTTGCACGTGAGGAA	0.3 kcal/mol

Sequence	relative binding free energy
GGTTCCACGTGGAAGG	0.12 kcal/mol
AATTGCACGTGCGGAT	0.03 kcal/mol
TTTCACACGTGGGTAG	-0.11 kcal/mol
GGGCTCACGTGAATGG	0.3 kcal/mol
GGAGACACGTGGTGGT	-0.06 kcal/mol
GGCAGCACGTGTTATG	0.06 kcal/mol
GTGCTCACGTGTATTG	0.17 kcal/mol
ATTATCACGTGGATGT	0.09 kcal/mol
GTGCGCACGTGGGTGC	-0.18 kcal/mol
AGAGTCACGTGAAATG	0.52 kcal/mol
GTTTTCACGTGAGCGC	0.61 kcal/mol
CATAGCACGTGTGGGC	0.02 kcal/mol
TATGGCACGTGCAGTT	-0.19 kcal/mol
TTCGGCACGTGTGGCT	0.01 kcal/mol
GCTTACACGTGAGTGT	0.22 kcal/mol
TTTTGCACGTGTGATG	0 kcal/mol
GTGGACACGTGAGTTC	0.24 kcal/mol
AATCGCACGTGAGTTG	0.17 kcal/mol
TGTAGCACGTGAGGGG	0.19 kcal/mol
TTACTCACGTGTGGTT	0.19 kcal/mol
CTGGACACGTGTTGTT	-0.03 kcal/mol
TTGTCCACGTGATATT	0.17 kcal/mol
GGCTACACGTGTTGAT	0.18 kcal/mol
TTTATCACGTGGTGCG	0.08 kcal/mol
TGCGTCACGTGTATGA	0.04 kcal/mol
GGCTTCACGTGATAGT	0.39 kcal/mol

Sequence	relative binding free energy
GTATACACGTGGTGTT	0.03 kcal/mol
GGAGTCACGTGGGATA	0.01 kcal/mol
GGGGGCACGTGATATA	0.01 kcal/mol
GAAGGCACGTGTAGGT	-0.11 kcal/mol
GTTGTCACGTGGCGGC	0.08 kcal/mol
GTACACACGTGTATGG	0.07 kcal/mol
TTCTACACGTGGGATA	0 kcal/mol
ATTATCACGTGTCGTG	0.09 kcal/mol
AAGTGCACGTGACAGG	0.12 kcal/mol
GGTGCCACGTGTGAGA	0.09 kcal/mol
GGATCCACGTGGTGAT	0.07 kcal/mol
TATATCACGTGTAAAG	0.13 kcal/mol
CTCGTCACGTGGTATT	0.02 kcal/mol
GGTGCCACGTGGAATG	0.05 kcal/mol
TGGGTCACGTGGTTAG	0.08 kcal/mol
TGCTGCACGTGGAAGT	0.07 kcal/mol
GAGATCACGTGTAGAG	0.27 kcal/mol
AGCAGCACGTGGTCTT	-0.01 kcal/mol
TAGGCCACGTGTTGTG	-0.17 kcal/mol
GTAGACACGTGTGGGG	0.19 kcal/mol
CGGATCACGTGTTGTG	0.15 kcal/mol
AGGGTCACGTGGTGAG	0.12 kcal/mol
AATTGCACGTGTGCAG	0.08 kcal/mol
AAAGGCACGTGATGTG	-0.04 kcal/mol
ATTTGCACGTGCGCGG	-0.11 kcal/mol
AGGTACACGTGGATTG	0.01 kcal/mol

Sequence	relative binding free energy
CAGTTCACGTGGGGTA	0.06 kcal/mol
TATGTCACGTGTTTTC	0.16 kcal/mol
TTGGACACGTGTACGA	0.22 kcal/mol
TTCTTCACGTGGGGCA	0.09 kcal/mol
CTTTTCACGTGTTCTT	0.41 kcal/mol
TGGGTCACGTGGGCGT	-0.01 kcal/mol
TGCTGCACGTGTGCTG	0.01 kcal/mol
ATTATCACGTGTCTGG	0.19 kcal/mol
TTCTGCACGTGGGTTG	-0.11 kcal/mol
GGGGACACGTGCAGAG	0.12 kcal/mol
GTGGGCACGTGTAGCA	0.1 kcal/mol
GCGAGCACGTGATGGG	0.14 kcal/mol
CAGGGCACGTGATTGT	0.09 kcal/mol
CTGATCACGTGCTGGG	0.21 kcal/mol
TGGCTCACGTGGGGCT	0.08 kcal/mol
TGGTGCACGTGGTGTG	-0.09 kcal/mol
GGTACCACGTGGTTAT	0.01 kcal/mol
TGGAACACGTGTGTAA	0.15 kcal/mol
ATTAGCACGTGAGCGG	0.15 kcal/mol
CGCTACACGTGGGAGG	0 kcal/mol
AGTGACACGTGGGTGT	-0.12 kcal/mol
ATTGCCACGTGGTGAG	0.01 kcal/mol
TTGATCACGTGAAGAG	0.42 kcal/mol
GGTAGCACGTGTATAC	0.17 kcal/mol
ATGTCCACGTGAAGGT	0.2 kcal/mol
GTTCTCACGTGTTCTG	0.34 kcal/mol

Sequence	relative binding free energy
ATGCTCACGTGGGTCA	0.14 kcal/mol
ACGGGCACGTGGGAGG	-0.09 kcal/mol
TTTGCCACGTGGGGAG	-0.25 kcal/mol
CTTAACACGTGGGTAT	-0.02 kcal/mol
CGAGGCACGTGGGGAA	-0.12 kcal/mol
ATTTTCACGTGTAGCT	0.15 kcal/mol
GGTTACACGTGTTTCT	0.07 kcal/mol
GGAGACACGTGTTTGT	0.02 kcal/mol
AGTTGCACGTGAAAAG	0.16 kcal/mol
TCTATCACGTGCTGTG	0.14 kcal/mol
ATTGCCACGTGATGTT	0.09 kcal/mol
TTATTCACGTGCGTTG	0.15 kcal/mol
AGAGGCACGTGGTCTA	-0.21 kcal/mol
CGATTCACGTGGGCGG	0.2 kcal/mol
ATTTTCACGTGGAGTG	0.26 kcal/mol
TTCTTCACGTGGGAAG	0.11 kcal/mol
TTAGGCACGTGTTATA	0.03 kcal/mol
GTGCGCACGTGGGGTA	-0.32 kcal/mol
GGGTACACGTGAAATA	0.46 kcal/mol
TGGTTCACGTGCTCTA	0.22 kcal/mol
GGACGCACGTGAGTTT	0.14 kcal/mol
GCTGGCACGTGGAGGG	-0.22 kcal/mol
GTTTACACGTGAGAAG	0.23 kcal/mol
GTTGACACGTGATCTG	0.15 kcal/mol
TGCGTCACGTGGGTGC	-0.01 kcal/mol
GGCAGCACGTGTGGAT	0.05 kcal/mol

Sequence	relative binding free energy
GTACGCACGTGGGGAG	-0.14 kcal/mol
TCTATCACGTGGGAGT	0.14 kcal/mol
TGGAACACGTGATAGT	0.23 kcal/mol
ATGTACACGTGAGTAT	0.25 kcal/mol
AAGGTCACGTGTTTCT	0.13 kcal/mol
TTAGTCACGTGTTTCT	0.03 kcal/mol
GTTTGCACGTGACTAA	0.3 kcal/mol
AAATGCACGTGTATGT	-0.03 kcal/mol
TAAGGCACGTGAGGGT	0.04 kcal/mol
CAGGGCACGTGGGATA	-0.14 kcal/mol
GGGTACACGTGTGATG	0.17 kcal/mol
TGCTACACGTGTGTTG	0.1 kcal/mol
GGCGTCACGTGGTCTG	0.05 kcal/mol
TGGATCACGTGCGTTT	0.05 kcal/mol
TATTTCACGTGTGCGC	0.21 kcal/mol
AGTCTCACGTGGGATT	0.21 kcal/mol
TGGGACACGTGTGGGC	0.09 kcal/mol
CGTCTCACGTGTTGGT	0.36 kcal/mol
GGGAGCACGTGATTAG	0.01 kcal/mol
GGTGTCACGTGTGGTG	0.27 kcal/mol
TAGGGCACGTGTCAGG	-0.08 kcal/mol
AGTAGCACGTGGTAGT	-0.13 kcal/mol
